According to paper PMC4336329 (PLoS ONE, 2015):
Hit rate of the full screen: of about 310,000 compounds, about 14,000 (4.5%) showed an effect of 50% or more. Effects have a minus sign here. Some of the results follow.

molecular target: human ether-à-go-go-related gene (hERG) potassium channel (human, UniProt Q12809); assay: primary screen, population patch clamp on CHO cells stably expressing hERG
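Also: peak tail current of the secondary pulse compared with the same well before compound.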

Sequence of human ether-à-go-go-related gene (hERG) potassium channel (Q12809 whole entry, looked up): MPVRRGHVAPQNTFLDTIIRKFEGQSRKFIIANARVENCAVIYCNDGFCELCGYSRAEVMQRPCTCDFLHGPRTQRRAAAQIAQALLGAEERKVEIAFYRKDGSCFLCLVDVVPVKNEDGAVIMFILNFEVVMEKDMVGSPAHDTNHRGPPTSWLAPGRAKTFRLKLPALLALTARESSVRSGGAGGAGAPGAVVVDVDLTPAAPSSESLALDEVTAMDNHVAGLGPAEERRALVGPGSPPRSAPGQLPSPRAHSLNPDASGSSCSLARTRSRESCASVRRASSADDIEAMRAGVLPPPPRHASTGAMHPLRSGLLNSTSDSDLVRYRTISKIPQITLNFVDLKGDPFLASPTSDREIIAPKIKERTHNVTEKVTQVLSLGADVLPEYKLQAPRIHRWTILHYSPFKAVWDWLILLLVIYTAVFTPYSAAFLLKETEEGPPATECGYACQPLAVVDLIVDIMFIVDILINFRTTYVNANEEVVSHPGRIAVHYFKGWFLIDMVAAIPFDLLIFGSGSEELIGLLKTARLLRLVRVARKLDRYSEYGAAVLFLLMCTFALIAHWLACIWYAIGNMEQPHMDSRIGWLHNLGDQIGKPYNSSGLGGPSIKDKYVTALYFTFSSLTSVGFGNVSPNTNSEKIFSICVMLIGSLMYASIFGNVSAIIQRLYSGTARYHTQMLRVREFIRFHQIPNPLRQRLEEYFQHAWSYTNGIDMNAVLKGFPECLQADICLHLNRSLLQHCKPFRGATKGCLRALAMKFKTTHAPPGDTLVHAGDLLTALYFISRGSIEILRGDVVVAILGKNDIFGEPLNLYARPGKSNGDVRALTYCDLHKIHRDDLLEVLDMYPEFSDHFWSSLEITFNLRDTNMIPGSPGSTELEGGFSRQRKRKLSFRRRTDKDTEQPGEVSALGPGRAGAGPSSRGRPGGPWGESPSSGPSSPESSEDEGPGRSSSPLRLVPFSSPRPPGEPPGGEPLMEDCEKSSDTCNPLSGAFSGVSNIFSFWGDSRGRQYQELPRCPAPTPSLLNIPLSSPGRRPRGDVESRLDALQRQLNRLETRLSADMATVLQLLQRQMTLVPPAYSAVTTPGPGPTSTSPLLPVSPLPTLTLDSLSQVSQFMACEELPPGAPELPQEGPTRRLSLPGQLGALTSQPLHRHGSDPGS

| Structure (SMILES) | hERG current change (%, negative = inhibition) at 10uM |
| --- | --- |
| Cc1ccc(C)c(NC(=O)c2ccccc2C(=O)c2ccccc2)c1 | 17.4% |
| C=CCn1c(O)c(C(CC)=Nc2ccccc2NC(C)=O)c(=O)[nH]c1=O | -0.237% |
| CC(=O)Cc1nsc(NC(=O)c2ccc(Br)o2)n1 | 5.77% |
| CN1CCN(CC(=O)Nc2ccc(OCc3ccccc3)cc2)CC1.Cl | -9.11% |
| COc1ccccc1N1CCN(CCCCNC(=O)c2ccc3ccccc3c2)CC1.Cl | -79.6% |
| CCC(=O)NC(C)c1cc(Cl)c2cccnc2c1O (centres unmarked) | 10.5% |
| Cc1ccc(NC(=O)CSc2nnc(-c3ccco3)o2)c(C)c1 | 12.7% |
| CC(C)NC(=O)c1ccc2c(c1)N(CC(=O)N1CCCC1)C(=O)C(C)(C)O2 | 0.896% |
| O=C(Nc1cc(C(=O)N2CCN(c3ccccc3O)CC2)ccc1Cl)c1cccs1 | -60.1% |
| COc1ccc(Cl)cc1NC(=O)C1CCCN(S(C)(=O)=O)C1 (centres unmarked) | 5.29% |
| CCOc1ccccc1N(CC(=O)O)S(=O)(=O)c1ccccc1 | 39.8% |
| CC(=O)C1=C(C)NC(SCC(=O)c2cc(Cl)ccc2Cl)=C(C#N)C1c1ccco1 (centres unmarked) | -8.83% |
| CCCCCCCCNC(=O)c1cnsn1 | -11.9% |
| CCCCC(=O)NNC(=S)NC(=O)C(c1ccccc1)c1ccccc1 | 17.9% |
| O=C1CC(/C=C/c2ccc([N+](=O)[O-])cc2)=Nc2ccccc2N1 | -21.1% |
| O=c1c2c3c(sc2nc(NCCO)n1CCc1ccccc1)CCCCC3 | 3.34% |
| COc1cccc(C(=O)NNC(=O)c2ccccc2-n2cccc2)c1 | 34.4% |
| COc1ccc(N2C(=O)C(=O)/C(=C(/O)c3ccc(C)cc3)C2c2cccnc2)cc1 (centres unmarked) | -38.5% |
| COc1ccc(C(=O)NCC(=O)N/N=C(\C)Cc2ccccc2)cc1 | 6.33% |
| CC1=C(C(=O)Nc2ccc(Cl)cc2)C(c2ccco2)NC(=O)N1 (centres unmarked) | -7.31% |
| Oc1oc(-c2ccc(Br)cc2)nc1/C=N/c1ccccn1 | 8.15% |
| CCc1ccc2c(c1)C(=O)C(=O)N2CC(=O)Nc1ccc(NC(=O)c2ccccn2)cc1 | 8.43% |
| CCn1c(SCC(=O)Nc2nccs2)nnc1-c1ccc(C)cc1 | -11.3% |

| Structure (SMILES) | hERG current change (%, negative = inhibition) at 10uM |
| --- | --- |
| CCC1CCCCN1C(=O)CCCc1ccccc1 (centres unmarked) | 2.45% |
| O=c1cc(-c2ccc(O)cc2)oc2ccc(O)cc12 | -7.57% |
| CCOC(=O)CSc1nc(Nc2ccc3c(c2)OCO3)c2ccccc2n1 | -8.23% |
| CCOC(=O)C1=C(NC#N)OC(C)=C(C)C1c1ccc(O)cc1 (centres unmarked) | -5.26% |
| CN1CCN(C(=O)COCc2cc(-c3ccc4c(c3)OCO4)on2)CC1 | 6.9% |
| COCCn1c(-c2ccc(C)cc2)nc2oc3cc(OC)ccc3c(=O)c2c1=O | 8.53% |
| Cc1ccc(NC(=O)O/N=C2\CCCCC2c2ccc([N+](=O)[O-])cc2[N+](=O)[O-])cc1 (centres unmarked) | -8.38% |
| COc1ccc(S(=O)(=O)NCC(=O)N(CC(=O)NCC2CCCO2)Cc2ccccc2)cc1 (centres unmarked) | 9.51% |
| CCc1ccc(NC(=O)COC(=O)CCC2CCCC2)cc1 | 11.7% |
| CC1=C([N+](=O)[O-])C(c2ccccc2)NC(=O)N1 (centres unmarked) | 21.7% |
| O=C(NC1CCCCC1)c1ccc2[nH]c(=O)c(=O)[nH]c2c1 | 13.3% |
| CC(C)C1N=C2c3ccccc3N=C(SCC#N)N2C1=O (centres unmarked) | 5.14% |
| O=C(OCCO)c1cc(Cl)c(C(=O)OCCO)cc1Cl | 9.51% |
| CCCCC(=O)Nc1cccc(NC(=O)c2ccc(Br)o2)c1 | -31.3% |
| CC(C)C(=O)Nc1ncc(Cc2ccc(Cl)cc2)s1 | 6.53% |
| Cc1ccc(SCc2c(C(=O)N/N=C/c3ccoc3)nnn2-c2nonc2N)cc1 | 20.3% |
| O=C(CN(C(=O)CNS(=O)(=O)c1ccccc1)c1ccc(Cl)cc1)NCC1CCCO1 (centres unmarked) | 3.27% |
| CCc1ccc(-c2nc(CS(=O)CC(=O)NCc3ccc4c(c3)OCO4)c(C)o2)cc1 (centres unmarked) | -33.4% |
| C=CCN(c1ccccc1)S(=O)(=O)c1cccc(C(=O)Nc2ncccc2C)c1 | -21.1% |
| O=C(c1ccco1)N1CCN(c2ccc(S(=O)(=O)N3CCCC3)cc2)CC1 | -30.8% |
| Cc1cc(C)nc(N2CCCC(C(=O)NCc3ccc4c(c3)OCO4)C2)n1 (centres unmarked) | 20.9% |
| CCOc1ccc(Nc2nnc(SCc3nc4ccccc4c(=O)[nH]3)s2)cc1 | -8.9% |
| Cc1ccc(S(=O)(=O)CC(=O)Nc2c(C)n(C)n(-c3ccccc3)c2=O)cc1 | 11.7% |

| Structure (SMILES) | hERG current change (%, negative = inhibition) at 10uM |
| --- | --- |
| NC(=S)N=Nc1c(O)n(C2OC(=O)c3ccccc32)c2ccccc12 (centres unmarked) | 6.78% |
| O=C(O)CCc1ccccc1OC(=O)c1ccccc1 | 10% |
| CCN(Cc1nc(-c2cccc(C)c2)no1)C(=O)c1ccco1 | -17.3% |
| Cc1nc(-c2cccc(NS(C)(=O)=O)c2)cs1 | -13.2% |
| Cc1ccc(NC(=O)N2CCN(Cc3ccc4c(c3)OCO4)CC2)cc1 | -33.8% |
| COc1ccc(-c2cc(C(=O)c3c(N)n(C)c(=O)n(C)c3=O)c3ccccc3n2)cc1 | -15.5% |
| Cc1nc(C)c(Oc2cccc(C(F)(F)F)c2)c(=O)[nH]1 | 3.35% |
| Cc1csc(NC(=O)CCCc2cccs2)n1 | -21.5% |
| COc1cccc(CN2C(=O)CCC2(C)C(=O)NC2CCCCC2)c1 (centres unmarked) | 12.9% |
| CC(C)=C(NC(=O)c1ccccc1)C(=O)Nc1ccc(C(=O)O)cc1 | -0.701% |
| CSc1ccc(/C=C(/NC(=O)c2ccccc2)C(=O)NCCN2CCOCC2)cc1 | -44.8% |
| O=C(NC(Cc1c[nH]c2ccccc12)c1nnc2n1CCCCC2)c1cccs1 (centres unmarked) | -6.65% |
| CCc1ccc(N2CC(C(=O)N3CCCC3)CC2=O)cc1 (centres unmarked) | -14.6% |
| Cc1cccc(COCC(CC(C)C)N2CCN(C(=O)c3ccc(C(F)(F)F)cc3)CCC2=O)c1 (centres unmarked) | -29.1% |
| CCCC(=O)C1=C(O)C(C(=O)OC)C(C)(C)CC1=Nc1ccc(C)cc1 (centres unmarked) | -18.5% |
| CCC(SC1=Nc2ccccc2C2=NC(CC(C)C)C(=O)N12)C(=O)Nc1ccc2c(c1)OCO2 (centres unmarked) | -39% |
| O=CN1N=C(c2ccccc2)CC1c1ccccc1[N+](=O)[O-] (centres unmarked) | 4.39% |
| COc1ccc(NC(=O)CN(C)CC(=O)Nc2ccccc2SC)cc1Cl | -14.6% |
| O=C(NCc1ccccc1)c1noc2c1CCCC2 | -0.175% |
| CC(=O)N1c2ccccc2C(CBr)=CC1(C)C | 8.96% |
| COc1ccc(-n2c(SCC(N)=O)nnc2-c2ccccc2F)cc1 | 2.56% |
| C(=C\c1ccccc1)/C=N/Nc1nc(N2CCCCC2)nc(N2CCCCC2)n1 | 5.31% |
| COc1ccc(-c2cc(C(=O)OCC(=O)c3ccc(C)c([N+](=O)[O-])c3)c3ccccc3n2)cc1 | 5.61% |

| Structure (SMILES) | hERG current change (%, negative = inhibition) at 10uM |
| --- | --- |
| c1ccc2c(c1)Oc1cccc3cccc-2c13 | 20.1% |
| Cc1c(C(=O)N2CCN(CCc3ccccn3)CC2)oc2ccc(Cl)cc12 | -81.1% |
| CC(C)(C)C(=O)/C=c1\[nH]c(=O)/c(=C\c2ccc(F)cc2)s1 | -4.36% |
| Cc1nn(-c2cc(N3CCOCC3)ccc2[N+](=O)[O-])c(=O)c2ccccc12 | -4.66% |
| Cc1csc(NC(=O)c2sccc2C)n1 | 12.7% |
| COc1cc(/C=N/NC(=O)CCn2c3ccccc3c3ccccc32)ccc1O | -2.82% |
| CCN(CC)C(=O)CSc1nc2sc(C)c(C)c2c(=O)[nH]1 | -7.52% |
| Nc1ccccc1C(=O)NNc1c2ccccc2nc2ccccc12 | 13.5% |
| O=C(/C=C/Nc1ccc(Br)cc1F)c1ccco1 | 27.6% |
| COc1ccc(NC(=O)COC(=O)c2c(F)cccc2Cl)cc1OC | -12.7% |
| CCOC(=O)c1ccc2c(c1)C1C=CCC1C(C(=O)O)N2 (centres unmarked) | 15.6% |
| CCN(C(=O)Cn1cc(C(C)=O)c2ccccc21)c1ccccc1 | 23.2% |
| O=C(CSc1ccccc1[N+](=O)[O-])NC1CCS(=O)(=O)C1 (centres unmarked) | 31.9% |
| COCCNC(=S)N1CCc2cc(OC)c(OC)cc2C1c1cccs1 (centres unmarked) | -13.9% |
| O=C(NCc1ccccn1)c1cc2n(n1)C(C(F)(F)F)CC(c1ccco1)N2 (centres unmarked) | 9.76% |
| O/N=C/c1cn(-c2ccccc2)nc1-c1cccnc1 | -31.6% |
| COc1ccccc1NC(=O)CSc1nnc(C2CCCCC2)n1N | 5.54% |
| COC(=O)c1ccccc1NC(=O)CSc1nnc(-c2ccc(OC)cc2)n1C | -49.6% |
| Cc1ccc2nc(SCC(=O)N(C)C3CCS(=O)(=O)C3)[nH]c2c1 (centres unmarked) | -0.59% |
| Cc1cccc(-c2noc(CNC(=O)COc3ccccc3C)n2)c1 | -1.88% |
